Test results: patent publication US20040110228A1, “Combinatorial organic synthesis of unique biologically active compounds” (priority 2002, published 2004)
Not every detail of the peptide structures is certain; ends, links or a residue may be inferred. For some of these results: For at least one compound, name, drawing or mass did not settle the structure. Where no end group is shown, it is not given here.

Legend:
Assay type in all cases: biochemical
[1] = target: E. coli topoisomerase I encoded by the topA gene (Escherichia coli, UniProt P06612); assay: E. coli topoisomerase I plasmid relaxation assay
human topoisomerase I = target: T1, human topoisomerase I (Homo sapiens, UniProt P11387); assay: inhibition of hTopoI (Table 1); conditions: unit inferred, read-out: IC50, hTopol
T1 sequence (P11387 1-765): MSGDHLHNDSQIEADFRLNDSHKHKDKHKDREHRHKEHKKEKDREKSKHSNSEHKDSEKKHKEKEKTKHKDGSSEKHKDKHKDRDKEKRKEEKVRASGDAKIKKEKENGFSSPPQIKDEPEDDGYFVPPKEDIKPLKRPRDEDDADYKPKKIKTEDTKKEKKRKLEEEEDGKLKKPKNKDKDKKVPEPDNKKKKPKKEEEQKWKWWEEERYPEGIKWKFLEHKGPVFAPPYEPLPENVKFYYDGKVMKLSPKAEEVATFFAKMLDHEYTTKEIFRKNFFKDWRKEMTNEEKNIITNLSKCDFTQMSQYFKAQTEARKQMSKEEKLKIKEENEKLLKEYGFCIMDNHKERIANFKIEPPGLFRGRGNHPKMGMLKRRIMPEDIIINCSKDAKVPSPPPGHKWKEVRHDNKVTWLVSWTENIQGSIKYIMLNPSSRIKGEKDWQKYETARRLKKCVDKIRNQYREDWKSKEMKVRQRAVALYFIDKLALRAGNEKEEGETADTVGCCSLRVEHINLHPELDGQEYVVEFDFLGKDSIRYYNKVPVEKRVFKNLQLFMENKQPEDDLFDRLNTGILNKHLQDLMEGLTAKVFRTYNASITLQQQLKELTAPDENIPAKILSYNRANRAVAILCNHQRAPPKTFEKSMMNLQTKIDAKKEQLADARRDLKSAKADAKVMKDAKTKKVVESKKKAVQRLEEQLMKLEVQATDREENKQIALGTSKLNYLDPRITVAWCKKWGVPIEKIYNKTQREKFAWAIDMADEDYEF

Cre recombinase = Cre recombinase (Escherichia phage P1, UniProt P06956); assay: inhibition of Cre (Table 1); conditions: read-out: IC50, Cre, unit inferred
[2] = target: vaccinia virus topoisomerase (vTopo) (Vaccinia virus, UniProt P68698); conditions: for IC50: read-out: IC50, vTopo, Table 1, unit inferred
4 restriction enzymes = assay: inhibition of restriction enzymes; conditions: all 4 restriction enzymes tested
Int protein = Int protein (Escherichia phage lambda, UniProt P03700); assay: in vitro recombination reaction catalysed by the Int protein (attL/attR substrates, gel)

Substance | IC50 ([1]; Table 1, unit inferred, read-out: IC50, EcTopol) [µM] | IC50 (human topoisomerase I) [µM] | IC50 (Cre recombinase) [µM] | assembly of topo-DNA complexes and DNA ligation [2] | DNA cleavage by Vaccinia topoisomerase (topo) ([2]; potency very near that on Int) | IC50 [2] [µM] | inhibition of restriction enzymes (4 restriction enzymes) | effect on strand cleavage in recombination (Int protein) | EcTopol, % @ 100 ([1]; @ 100 (unit of concentration not given))
KWWCRW [KWWCRW, LysTrpTrpCysArgTrp, reference compound] | 8 | ~5 | 0.3 | does not block | blocks DNA cleavage | 3.5 | nondescriminate inhibition |  | 
WKHYNY [WKHYNY, reference compound] |  |  |  |  |  |  |  | does not block strand cleavage | 
WRRWCR [WRRWCR] |  | 38 | 0.05 |  |  | 32 |  |  | 
WRWYCR [WRWYCR, TrpArgTrpTyrCysArg] |  | 64 | 0.2 |  |  |  |  |  | 
WRYRCR [WRYRCR] |  | 36 | 0.3 |  |  | 31 |  |  | 
YWCYWW [YWCYWW] |  |  | 0.2 |  |  | 32 |  |  | none @ 100
